Laboratory results: PubChem BioAssay (Tox21)
Values joined by “and” are separate entries in the source; they are usually repeats but may differ in a detail not shown here. Identical values can stand only once. Inconclusive results, whose numbers are uncertain, are shown with a selection of clear calls. A potency beside an inconclusive call is a rough fit, not a confirmed value. Active and inactive are the calls of the source. The call rests on the fitted dose curve; in most records, active means well fitted inhibition curve with a large enough effect in the signal ratio in the repeat runs (not every such curve was filed as active); inconclusive means weak or mixed curves, or effect the other way; inactive means no such curve, though single readings can be large or run the other way; the % refers to the signal ratio.

biological target: Glucocorticoid receptor (Homo sapiens) (UniProt P04150); assay: qHTS assay to identify small molecule antagonists of the glucocorticoid receptor (GR) signaling pathway (AID 720692); details: GR-bla HeLa, beta-lactamase FRET ratio, dexamethasone-stimulated, 18 h; activity change, negative = inhibition: at 58.5 µM (top of the series) unless noted
Method in brief: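 Antagonism was scored as loss of dexamethasone-driven (5 nM final) reporter signal in HeLa cells bearing a glucocorticoid response element–beta-lactamase construct, after 18 h compound exposure at 37 C and 2 h FRET substrate loading.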
On the % scale 0 is the no-effect control and ±100 the full control effect; potency means the concentration at half of the fitted maximal effect; tags describe the fitted curve by direction and shape or compound fluorescence and quenching.

Chain of UniProt P04150 (P04150 whole entry, looked up): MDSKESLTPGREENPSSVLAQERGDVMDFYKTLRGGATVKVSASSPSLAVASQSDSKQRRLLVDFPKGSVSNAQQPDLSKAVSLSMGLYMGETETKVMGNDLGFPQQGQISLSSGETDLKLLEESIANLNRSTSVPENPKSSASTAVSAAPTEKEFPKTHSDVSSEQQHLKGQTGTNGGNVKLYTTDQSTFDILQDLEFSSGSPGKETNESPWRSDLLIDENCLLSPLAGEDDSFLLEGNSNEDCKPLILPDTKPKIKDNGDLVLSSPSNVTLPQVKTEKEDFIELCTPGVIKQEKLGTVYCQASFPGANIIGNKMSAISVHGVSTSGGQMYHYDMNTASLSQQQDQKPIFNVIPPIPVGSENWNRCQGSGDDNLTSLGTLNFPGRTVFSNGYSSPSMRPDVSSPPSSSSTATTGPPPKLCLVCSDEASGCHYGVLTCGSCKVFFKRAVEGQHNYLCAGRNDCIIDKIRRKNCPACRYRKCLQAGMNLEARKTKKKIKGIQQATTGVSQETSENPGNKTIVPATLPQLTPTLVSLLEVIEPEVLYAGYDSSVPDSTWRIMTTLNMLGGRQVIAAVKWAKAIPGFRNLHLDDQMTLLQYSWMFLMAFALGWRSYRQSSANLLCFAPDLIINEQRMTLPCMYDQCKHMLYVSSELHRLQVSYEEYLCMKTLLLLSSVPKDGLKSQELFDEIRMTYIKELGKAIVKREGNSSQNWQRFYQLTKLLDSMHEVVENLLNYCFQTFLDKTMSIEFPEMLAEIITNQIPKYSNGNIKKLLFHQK

Row | SMILES | activity change, negative = inhibition | Potency
1 | Cc1cc(OI)c(C(C)C)cc1-c1cc(C(C)C)c(OI)cc1C | inconclusive: -31.4% | –
2 | COc1cc(NC(=O)CC(C)=O)c(OC)cc1Cl | inconclusive: -33.1% [at 78.9 µM] | active: 54.9 µM
3 | C[N+](C)(C)CC(O)CC(=O)[O-] (configuration not stated) | – | inactive
4 | Cc1ccccc1C(OCCN(C)C)c1ccccc1 (configuration not stated) | inconclusive: 17.6% and inconclusive: 13.8% and inconclusive: 7.98% | inconclusive: 61.6 µM [fluorescent, partial curve, poor fit]
5 | CCCCOCC(C)O (configuration not stated) | – | inactive
6 | CN(C)CCOCCN(C)C | inconclusive: -29.8% [at 78.9 µM] | –
7 | Cc1nnc(C(=O)NC(C)(C)c2nc(C(=O)NCc3ccc(F)cc3)c(O)c(=O)n2C)o1 | – | inactive
8 | N#C/C(=C1/SC[C@@H](c2ccc(Cl)cc2Cl)S1)n1ccnc1 | inconclusive: -52% | inconclusive: 23.9 µM [cytotoxic] and inconclusive: 30.1 µM [inhibitor, single point]
9 | Cc1c(I)c(=O)n(-c2ccccc2)n1C | inconclusive: 13.5% | –
10 | CCC/C=C/CO | inconclusive: 30.9% | –
11 | O=C(NN1CCCC1)NS(=O)(=O)c1ccc(Cl)cc1 | – | inactive
12 | CCOC(=O)CC(=O)OCC | inconclusive: 15.2% [at 78.9 µM] | –
13 | CC(C)(N)C#N | – | inconclusive: 63.8 µM [fluorescent, partial curve, poor fit]
14 | C=CC(=O)OCCC(=O)O | – | inconclusive: 50.6 µM [activator, partial curve] and inconclusive: 43.6 µM [activator, partial curve]
15 | c1ccc(C(O[C@H]2CCCN(CCc3ccc4c(c3)OCO4)C2)c2ccccc2)cc1 | inconclusive: -2.87% | –
16 | c1ccc2c(c1)ccc1ccccc12 | inconclusive: 19% | –
17 | OC[C@H]1O[C@H](O[C@]2(CCl)O[C@H](CCl)[C@@H](O)[C@@H]2O)[C@H](O)[C@@H](O)[C@H]1Cl | inconclusive: -0.85% | –
18 | Nc1c[n+](N2CCOCC2)no1 | – | inactive
19 | Nc1ccc(S(=O)(=O)Nc2nccs2)cc1 | inconclusive: -9.38% | –

Row | SMILES | activity change, negative = inhibition | Potency
20 | SCCOCCOCCS | – | inactive
21 | C=CS(=O)(=O)O | – | inactive
22 | Fc1ccc(Br)cc1 | inconclusive: 6.85% | –
23 | O=C(O)C(=O)O | inconclusive: 16.3% | –
24 | CCCCC(=O)O | – | inconclusive: 23.9 µM [rising, partial curve, poor fit]
25 | CN(C)CCCCl | – | inactive
26 | CC(=O)O[C@H]1C[C@@H]2CC[C@@]1(C)C2(C)C | – | inactive
27 | CN1[C@@H]2CC[C@H]1CC(OC(=O)C(CO)c1ccccc1)C2 (some centres not stated) | inconclusive: 9.23% and inconclusive: 23.3% | inconclusive: 0.952 µM [activator, single point]
28 | CC(C)CC(C)(N)C#N (configuration not stated) | – | inconclusive: 49.6 µM [activator, single point]
29 | CC(C)(C)c1ccc(OCC2CO2)cc1 (configuration not stated) | – | inconclusive: 1.77 µM [inhibitor, full curve, poor fit]
30 | Cc1cccc(C)c1NC(=O)CN1CCCCCC1 | inconclusive: 13.7% | –
31 | CCCCC1CCCCC(=O)O1 (configuration not stated) | – | inactive
32 | CNCCCCOc1ccccc1Cc1ccccc1 | inconclusive: 19.5% | –
33 | CO[C@@H]1[C@@H](O[C@@H]2O[C@H](C)[C@@H](O[C@H]3C[C@@](C)(O)[C@@H](O)[C@H](C)O3)[C@H](N(C)C)[C@H]2O)[C@@H](CC=O)C[C@@H](C)[C@@H](O[C@@H]2CC[C@H](N(C)C)[C@@H](C)O2)/C=C/C=C/C[C@@H](C)OC(=O)C[C@H]1OC(C)=O | inconclusive: -42.2% | –
34 | COP(=O)(O)OP(=O)(O)OC | inconclusive: 13.7% | –
35 | CCCCC1C(=O)N(c2ccccc2)N(c2ccccc2)C1=O | inconclusive: -32% and inconclusive: -22.8% | inconclusive: 43.6 µM [inhibitor, partial curve]
36 | C1=CCC(c2ccccc2)CC1 (configuration not stated) | inconclusive: -1.91% | –
37 | COc1cc(C)cc(O)c1 | – | inconclusive: 11 µM [inhibitor, partial curve, poor fit]

same assay, conditions: GR-bla HeLa, beta-lactamase FRET ratio, dexamethasone-stimulated, 18 h; at 58.5 µM (top of the series)

Row | SMILES | activity change, negative = inhibition
38 | CN(C)CCOCCN(C)C | inactive: 5.85%
39 | Cc1c(N(C)CS(=O)(=O)O)c(=O)n(-c2ccccc2)n1C | inconclusive: 2.62%
40 | CN(C)CCOC(c1ccccc1)c1ccccc1 | inconclusive: 37.3% [activator]
41 | c1ccc2c(c1)ccc1ccccc12 | inactive: -1.06%
42 | Nc1ccc(S(=O)(=O)Nc2nccs2)cc1 | inactive: 16.1%

same assay, conditions: GR-bla HeLa, beta-lactamase FRET ratio, dexamethasone-stimulated, 18 h; at 78.9 µM (top of the series)

Row | SMILES | activity change, negative = inhibition
43 | CN(C)CCOC(c1ccccc1)c1ccccc1 | inconclusive: 9.76%
44 | OC[C@H]1O[C@H](O[C@]2(CCl)O[C@H](CCl)[C@@H](O)[C@@H]2O)[C@H](O)[C@@H](O)[C@H]1Cl | inactive: 2.84%
45 | Nc1ccc(S(=O)(=O)Nc2nccs2)cc1 | inactive: -1.24%
46 | Fc1ccc(Br)cc1 | inactive: 5.53%
47 | O=C(O)C(=O)O | inactive: 8.57%
